Laboratory results published in the supplement of paper PMC3334620.
In all, about 33,000 sequences were measured (“E-score (-0.5 to 0.5)”: median about -0.04, highest 2% from about 0.36 on). Some of the results follow.

Each sequence was assayed against T1, Hmlalpha2 (UniProt P0CY09) (assay: PBM E-score (8-mer binding enrichment) (E-score (-0.5 to 0.5)); higher = stronger / more preferred TF binding; most listed sequences are background and not binding sites). Details: protein concentration: 200 nM; construct: GST-full length.
T1 sequence: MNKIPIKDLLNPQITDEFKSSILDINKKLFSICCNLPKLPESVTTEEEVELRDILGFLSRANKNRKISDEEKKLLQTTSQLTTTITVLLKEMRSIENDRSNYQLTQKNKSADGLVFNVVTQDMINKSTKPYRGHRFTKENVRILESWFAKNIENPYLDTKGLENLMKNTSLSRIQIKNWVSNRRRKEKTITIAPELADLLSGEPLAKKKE
Method in brief: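 Yeast transcription factors carrying a GST tag, as full-length proteins or DNA-binding domains, were produced by PURExpress in vitro transcription/translation. About 100-200 nM protein was applied to universal all-10-mer Agilent arrays, double-stranded by primer extension on fresh or once-stripped slides. Bound protein was detected with fluorescent anti-GST, and scans were normalised with masliner. The Universal PBM Analysis Suite gave each ungapped eight-base word, pooled with its reverse complement, an E-score, a modified Wilcoxon-Mann-Whitney statistic.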
In the case of ATTACGTG, the “PBM E-score” value was 0.452.
In the case of GGATCTAA, the “PBM E-score” value was -0.159.
ACACTCCA was tested, and the “PBM E-score” value was 0.027.
CTAACCCC was tested, and the “PBM E-score” value was -0.345.
With GAGGGATA the “PBM E-score” value was -0.254.
GGATCGTA was tested, and the “PBM E-score” value was -0.0488.
In the case of GTCGGCTA, the “PBM E-score” value was -0.00252.
CTATCAGC was tested, and the “PBM E-score” value was -0.0414.
With CCATTGAA the “PBM E-score” value was 0.0647.
In the case of AATAGTAG, the “PBM E-score” value was 0.0941.
With GTCATACA the “PBM E-score” value was 0.125.
AAAGTACG was tested, and the “PBM E-score” value was 0.159.
For CGCAATTA, the “PBM E-score” value was 0.141.
With GTTTGATA the “PBM E-score” value was 0.0313.
In the case of ACAAAGCT, the “PBM E-score” value was 0.213.
With ATATCGCC the “PBM E-score” value was 0.0196.
With GCCTTCAA the “PBM E-score” value was -0.035.
In the case of AGTGCATG, the “PBM E-score” value was 0.108.
For CCTAGCGC, the “PBM E-score” value was -0.102.
AACACACT was tested, and the “PBM E-score” value was 0.313.
For ACTTTCAC, the “PBM E-score” value was 0.0702.
With CAACCGTC the “PBM E-score” value was -0.12.
In the case of ATTATACC, the “PBM E-score” value was 0.0784.
With CTCTAGTC the “PBM E-score” value was -0.289.
For TGACCCAA, the “PBM E-score” value was -0.0562.
For TAGCCAAA, the “PBM E-score” value was -0.0307.
ATATTGCA was tested, and the “PBM E-score” value was -0.0157.
In the case of ATCAGAAC, the “PBM E-score” value was -0.0344.
In the case of AAACTGGC, the “PBM E-score” value was -0.0453.
CCTTGCGA was tested, and the “PBM E-score” value was -0.239.
In the case of AGCTGGCA, the “PBM E-score” value was -0.193.
For AGGGGGTA, the “PBM E-score” value was -0.336.
For AGTCGGAG, the “PBM E-score” value was -0.235.
For GGCACGTA, the “PBM E-score” value was 0.226.
With CTTTCGAC the “PBM E-score” value was -0.0323.
With ATACGGGG the “PBM E-score” value was -0.136.
GCAACGGC was tested, and the “PBM E-score” value was -0.0782.
With GCCACTAC the “PBM E-score” value was -0.184.
With GGCCCTCA the “PBM E-score” value was -0.342.
For AGCCCTGG, the “PBM E-score” value was -0.272.
ACGCATAA was tested, and the “PBM E-score” value was 0.208.
With ACACATTA the “PBM E-score” value was 0.268.
In the case of ACACAGAT, the “PBM E-score” value was 0.264.
For CCCAGCGA, the “PBM E-score” value was -0.183.
For GGCCAACA, the “PBM E-score” value was -0.101.
For CAGCAATG, the “PBM E-score” value was -0.0445.
With AGACGGTG the “PBM E-score” value was -0.231.
In the case of CAAGACAG, the “PBM E-score” value was 0.0592.
For ACGAGTTC, the “PBM E-score” value was 0.138.
CTACCTTC was tested, and the “PBM E-score” value was 0.0209.
With CATGATTA the “PBM E-score” value was 0.25.
For AACGCCAC, the “PBM E-score” value was 0.0709.
For CAAAGACG, the “PBM E-score” value was -0.153.
ACTACCCG was tested, and the “PBM E-score” value was 0.0106.
With AAAGCAGC the “PBM E-score” value was -0.0392.
For CTCATCGA, the “PBM E-score” value was -0.164.
With GCCGCCGC the “PBM E-score” value was -0.264.
For ATGCCGAC, the “PBM E-score” value was -0.0235.
In the case of CTACTAAC, the “PBM E-score” value was 0.275.
With ACCTCTCA the “PBM E-score” value was -0.147.
ATGGGGAC was tested, and the “PBM E-score” value was -0.193.
With CCATAGAG the “PBM E-score” value was -0.305.
In the case of GAGACCTA, the “PBM E-score” value was -0.12.
For GCCGTTCA, the “PBM E-score” value was -0.193.
ACCACAAT was tested, and the “PBM E-score” value was -0.143.
GAACGCGC was tested, and the “PBM E-score” value was 0.155.
With GCGACGAC the “PBM E-score” value was -0.276.
With AGAGTGGA the “PBM E-score” value was -0.0454.
In the case of CAATGCCC, the “PBM E-score” value was -0.236.
CACCGATC was tested, and the “PBM E-score” value was -0.212.
With ACTCACAA the “PBM E-score” value was 0.0844.
AGGTGAAA was tested, and the “PBM E-score” value was -0.0005.
AATTCATG was tested, and the “PBM E-score” value was 0.209.
For GCGGATCC, the “PBM E-score” value was -0.336.
In the case of CCACAAGG, the “PBM E-score” value was -0.171.
CCACTAGC was tested, and the “PBM E-score” value was -0.111.
With GCCCGTAA the “PBM E-score” value was 0.00975.
For AGATCTAA, the “PBM E-score” value was -0.0541.
With AGAGTGCG the “PBM E-score” value was -0.0975.
For GAAGTTGA, the “PBM E-score” value was -0.0285.
In the case of AAGGGTAT, the “PBM E-score” value was 0.0353.
For CGACCGAA, the “PBM E-score” value was -0.0499.
For CAGAGAAG, the “PBM E-score” value was -0.0752.
With GGAATAGA the “PBM E-score” value was -0.0449.
With AGGCTGAC the “PBM E-score” value was -0.223.
With CCATAATC the “PBM E-score” value was -0.159.
For AAGCTAGC, the “PBM E-score” value was -0.0149.
ATGCCGTG was tested, and the “PBM E-score” value was 0.0267.
In the case of ATGAACAG, the “PBM E-score” value was 0.153.
With CAGGCGTC the “PBM E-score” value was -0.124.
In the case of ACTGACAG, the “PBM E-score” value was -0.146.
With CTCCTCCA the “PBM E-score” value was -0.0423.
AGAGGAAC was tested, and the “PBM E-score” value was -0.219.
ATGAATAG was tested, and the “PBM E-score” value was -0.119.
For AGCGTTAG, the “PBM E-score” value was 0.0165.
In the case of GTGAAAAA, the “PBM E-score” value was 0.128.
For CCCTTAGG, the “PBM E-score” value was -0.209.
In the case of ACGAGAGT, the “PBM E-score” value was -0.0108.
With CAATCGAC the “PBM E-score” value was 0.0988.
For AAAGCTGA, the “PBM E-score” value was 0.0781.
For AGCTTAGC, the “PBM E-score” value was 0.128.
For GTTATTTA, the “PBM E-score” value was 0.345.
For AGGTTTCC, the “PBM E-score” value was -0.0327.
With CGAAGTCC the “PBM E-score” value was -0.235.
ATATACGC was tested, and the “PBM E-score” value was 0.172.
TGCCCGCA was tested, and the “PBM E-score” value was -0.00776.
In the case of GCCGCTGA, the “PBM E-score” value was -0.119.
In the case of AATGCTGA, the “PBM E-score” value was 0.0951.
For GACCCTCA, the “PBM E-score” value was -0.257.
GTATAAGA was tested, and the “PBM E-score” value was 0.116.
For CCCACCTC, the “PBM E-score” value was -0.258.
For GAGACAGC, the “PBM E-score” value was -0.136.
For AGCTTACG, the “PBM E-score” value was 0.127.
In the case of GCAGATAA, the “PBM E-score” value was 0.0504.
In the case of AATTATGA, the “PBM E-score” value was 0.109.
With CCAAGTCG the “PBM E-score” value was -0.144.
For CGCCTAAG, the “PBM E-score” value was -0.151.
In the case of ATCGTGCG, the “PBM E-score” value was 0.14.
CGAACTGA was tested, and the “PBM E-score” value was -0.111.
With CGGAGACG the “PBM E-score” value was -0.0283.
For CGCCACTA, the “PBM E-score” value was -0.201.
For GAACTCCA, the “PBM E-score” value was -0.0211.
In the case of TCCACAGA, the “PBM E-score” value was -0.139.
AGACACCA was tested, and the “PBM E-score” value was -0.109.
For ACCCCGCA, the “PBM E-score” value was -0.14.
With AGAGTACA the “PBM E-score” value was 0.197.
With CCTGTTGA the “PBM E-score” value was 0.218.
In the case of AGTTGTAT, the “PBM E-score” value was 0.244.
In the case of ATTACGGG, the “PBM E-score” value was -0.0184.
With CTACGGAC the “PBM E-score” value was -0.231.
GATACGGA was tested, and the “PBM E-score” value was -0.037.
ATTGGCAC was tested, and the “PBM E-score” value was -0.0259.
For GAGCGTTA, the “PBM E-score” value was 0.139.
In the case of GAATATGC, the “PBM E-score” value was -0.183.
In the case of GCAAGCCA, the “PBM E-score” value was -0.0582.
TAAGATCA was tested, and the “PBM E-score” value was 0.0725.
In the case of AGATCGCT, the “PBM E-score” value was -0.147.
In the case of CTCGCTAA, the “PBM E-score” value was 0.0195.
In the case of ATTCAAAT, the “PBM E-score” value was 0.103.
With AGGCAAAT the “PBM E-score” value was -0.0597.
AAAAACAG was tested, and the “PBM E-score” value was -0.0177.
With AACGGAAC the “PBM E-score” value was -0.0115.
ATGCATGC was tested, and the “PBM E-score” value was 0.121.
TCGACCCA was tested, and the “PBM E-score” value was -0.18.
In the case of GACTTGCA, the “PBM E-score” value was 0.161.
With AGCAATAA the “PBM E-score” value was -0.0473.
With AGGCGAGG the “PBM E-score” value was -0.294.
For ACAAACTG, the “PBM E-score” value was 0.0291.
In the case of ATGTTATC, the “PBM E-score” value was 0.401.
With CGGGAAGA the “PBM E-score” value was 0.0699.
For AGTGCTGG, the “PBM E-score” value was -0.183.
In the case of GCCAGACA, the “PBM E-score” value was -0.163.
In the case of GGTGTCAC, the “PBM E-score” value was -0.0975.
ATACCGGG was tested, and the “PBM E-score” value was -0.0964.
With CTACTGAC the “PBM E-score” value was -0.189.
AGAACTAT was tested, and the “PBM E-score” value was 0.119.
In the case of ACCCGAGC, the “PBM E-score” value was -0.0626.
For TGTATCAA, the “PBM E-score” value was 0.279.
For ATTCTCTG, the “PBM E-score” value was -0.163.
With GAGCTATA the “PBM E-score” value was -0.0673.
In the case of CGCCTCCG, the “PBM E-score” value was -0.205.
AGTTATCA was tested, and the “PBM E-score” value was 0.0937.
With CGTGGAGA the “PBM E-score” value was -0.24.
In the case of GGCTTAAC, the “PBM E-score” value was 0.136.
In the case of ACGATTCG, the “PBM E-score” value was -0.00509.
With ATGAGCGG the “PBM E-score” value was -0.161.
For GAGGCAAC, the “PBM E-score” value was -0.221.
CGCTGCTA was tested, and the “PBM E-score” value was -0.24.
In the case of TCCACCGA, the “PBM E-score” value was -0.169.
With AAGGGATG the “PBM E-score” value was -0.188.
ACGTCCAA was tested, and the “PBM E-score” value was 0.0104.
In the case of GTTGGTAA, the “PBM E-score” value was 0.328.
